# Experimental data published in the supplement of paper PMC8728848.
# The list shows a part of the results.
# B1: AFL5 (Aspergillus fumigatus), Q4WB00 (protein)
# chain: MDNFMEMTKKLGHQPELLRLRALDATYDDALEGKLVVAPLDMSEPGKKILDSGTADGTWLRNVRSKQSVPHDYYGSDVEGELFPKDPDGITYFAHSFKDPWPQQYLGFFDLVHIRGSLAGSAPEGPAPVIQNLTTLLKPGGWVQLMEMNAFSPPPNGPAMTDFAKMASEMFTGIGVGDFANNNKSMLEDAGLKNVQEKRVIVNLGKKAKPELHDQSIHGVTGPIVPLTSVARTVKSSFTGEQLDALPARVKEELETEGGQVEMIIAFGQKA
# Columns and labels:
# Assay in all cases: glycan array binding signal (z-score within array); higher = stronger binding
# Conditions in all cases: glycan notation: IUPAC condensed, linker removed
# Glc(b1-4)Glc = biological target: Glc(b1-4)Glc
# Outline: (§1)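 Glycan array binding is given as a within-array Z-score, which can be read as non-binding when negative. The arrays, 3228 of them, came from the Consortium for Functional Glycomics database and were retained only where the protein sequence was available. Z-scores were averaged across arrays of the same protein sequence at different concentrations or buffers and across linkers.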
# Glc(b1-6)Glc = biological target: Glc(b1-6)Glc
# Outline: as §1
# GlcA(b1-3)Gal = biological target: GlcA(b1-3)Gal
# Outline: as §1
# GlcA(b1-3)GlcNAc = biological target: GlcA(b1-3)GlcNAc
# Outline: as §1
# GlcA(b1-6)Gal = biological target: GlcA(b1-6)Gal
# Outline: as §1
# [1] = biological target: GlcA3S(b1-3)Gal(b1-4)GlcNAc(b1-2)Man
# Outline: as §1
# [2] = biological target: GlcA3S(b1-3)Gal(b1-4)GlcNAc(b1-3)Gal(b1-4)Glc
# Outline: as §1
# [3] = biological target: GlcNAc(a1-3)Gal(b1-4)GlcNAc
# Outline: as §1
# [4] = biological target: GlcNAc(a1-4)Gal(b1-3)GlcNAc
# Outline: as §1
# [5] = biological target: GlcNAc(a1-4)Gal(b1-4)GalNAc
# Outline: as §1
# [6] = biological target: GlcNAc(a1-4)Gal(b1-4)GlcNAc
# Outline: as §1
# [7] = biological target: GlcNAc(a1-4)Gal(b1-4)GlcNAc(b1-3)Gal(b1-4)Glc
# Outline: as §1
# [8] = biological target: GlcNAc(a1-4)Gal(b1-4)GlcNAc(b1-3)Gal(b1-4)GlcNAc
# Outline: as §1
# [9] = biological target: GlcNAc(a1-4)Gal(b1-4)GlcNAc(b1-3)Gal(b1-4)GlcNAc(b1-3)Gal(b1-4)GlcNAc
# Outline: as §1
# [10] = biological target: GlcNAc(a1-4)Gal(b1-4)GlcNAc(b1-3)Gal(b1-4)[Fuc(a1-3)]GlcNAc(b1-3)Gal(b1-4)[Fuc(a1-3)]GlcNAc
# Outline: as §1
# [11] = biological target: GlcNAc(a1-6)Gal(b1-4)GlcNAc
# Outline: as §1
# [12] = biological target: GlcNAc(b1-2)Gal(b1-3)GalNAc
# Outline: as §1
# [13] = biological target: GlcNAc(b1-2)Man(a1-3)[GlcNAc(b1-2)Man(a1-6)]Man(b1-4)GlcNAc(b1-4)GlcNAc
# Outline: as §1
# [14] = biological target: GlcNAc(b1-2)Man(a1-3)[GlcNAc(b1-2)Man(a1-6)]Man(b1-4)GlcNAc(b1-4)[Fuc(a1-6)]GlcNAc
# Outline: as §1
# [15] = biological target: GlcNAc(b1-2)Man(a1-3)[GlcNAc(b1-4)][GlcNAc(b1-2)Man(a1-6)]Man(b1-4)GlcNAc(b1-4)GlcNAc
# Outline: as §1
# [16] = biological target: GlcNAc(b1-2)Man(a1-3)[GlcNAc(b1-4)][GlcNAc(b1-2)Man(a1-6)]Man(b1-4)GlcNAc(b1-4)[Fuc(a1-6)]GlcNAc
# Outline: as §1
# [17] = biological target: GlcNAc(b1-2)[GlcNAc(b1-4)]Man(a1-3)[GlcNAc(b1-2)Man(a1-6)]Man(b1-4)GlcNAc(b1-4)GlcNAc
# Outline: as §1
# [18] = biological target: GlcNAc(b1-2)[GlcNAc(b1-4)]Man(a1-3)[GlcNAc(b1-4)][GlcNAc(b1-2)Man(a1-6)]Man(b1-4)GlcNAc(b1-4)GlcNAc
# Outline: as §1
# [19] = biological target: GlcNAc(b1-2)[GlcNAc(b1-4)]Man(a1-3)[GlcNAc(b1-4)][GlcNAc(b1-2)[GlcNAc(b1-6)]Man(a1-6)]Man(b1-4)GlcNAc(b1-4)GlcNAc
# Outline: as §1
# [20] = biological target: GlcNAc(b1-2)[GlcNAc(b1-4)]Man(a1-3)[GlcNAc(b1-4)][GlcNAc(b1-2)[GlcNAc(b1-6)]Man(a1-6)]Man(b1-4)GlcNAc(b1-4)[Fuc(a1-6)]GlcNAc
# Outline: as §1
# [21] = biological target: GlcNAc(b1-2)[GlcNAc(b1-6)]Man(a1-6)[GlcNAc(b1-2)Man(a1-3)]Man(b1-4)GlcNAc(b1-4)GlcNAc
# Outline: as §1
# [22] = biological target: GlcNAc(b1-2)[GlcNAc(b1-6)]Man(a1-6)[GlcNAc(b1-2)Man(a1-3)]Man(b1-4)GlcNAc(b1-4)[Fuc(a1-6)]GlcNAc
# Outline: as §1
# [23] = biological target: GlcNAc(b1-2)[GlcNAc(b1-6)]Man(a1-6)[GlcNAc(b1-4)][GlcNAc(b1-2)Man(a1-3)]Man(b1-4)GlcNAc(b1-4)GlcNAc
# Outline: as §1
# GlcNAc(b1-3)Fuc = biological target: GlcNAc(b1-3)Fuc
# Outline: as §1
# GlcNAc(b1-3)Gal = biological target: GlcNAc(b1-3)Gal
# Outline: as §1
# [24] = biological target: GlcNAc(b1-3)Gal(b1-3)GalNAc
# Outline: as §1
# GlcNAc(b1-3)Gal(b1-4)Glc = biological target: GlcNAc(b1-3)Gal(b1-4)Glc
# Outline: as §1
# [25] = biological target: GlcNAc(b1-3)Gal(b1-4)GlcNAc
# Outline: as §1
# [26] = biological target: GlcNAc(b1-3)Gal(b1-4)GlcNAc(b1-2)Man(a1-3)[GlcNAc(b1-3)Gal(b1-4)GlcNAc(b1-2)Man(a1-6)]Man(b1-4)GlcNAc(b1-4)GlcNAc
# Outline: as §1
# [27] = biological target: GlcNAc(b1-3)Gal(b1-4)GlcNAc(b1-2)Man(a1-3)[GlcNAc(b1-3)Gal(b1-4)GlcNAc(b1-2)Man(a1-6)]Man(b1-4)GlcNAc(b1-4)[Fuc(a1-6)]GlcNAc
# Outline: as §1
# [28] = biological target: GlcNAc(b1-3)Gal(b1-4)GlcNAc(b1-2)[GlcNAc(b1-3)Gal(b1-4)GlcNAc(b1-6)]Man(a1-6)[GlcNAc(b1-3)Gal(b1-4)GlcNAc(b1-2)Man(a1-3)]Man(b1-4)GlcNAc(b1-4)GlcNAc
# Outline: as §1
# [29] = biological target: GlcNAc(b1-3)Gal(b1-4)GlcNAc(b1-3)Gal(b1-4)GlcNAc
# Outline: as §1
# [30] = biological target: GlcNAc(b1-3)Gal(b1-4)GlcNAc(b1-3)Gal(b1-4)GlcNAc(b1-2)Man(a1-3)[GlcNAc(b1-3)Gal(b1-4)GlcNAc(b1-3)Gal(b1-4)GlcNAc(b1-2)Man(a1-6)]Man(b1-4)GlcNAc(b1-4)GlcNAc
# Outline: as §1
# [31] = biological target: GlcNAc(b1-3)Gal(b1-4)GlcNAc(b1-3)Gal(b1-4)GlcNAc(b1-2)Man(a1-3)[GlcNAc(b1-3)Gal(b1-4)GlcNAc(b1-3)Gal(b1-4)GlcNAc(b1-2)Man(a1-6)]Man(b1-4)GlcNAc(b1-4)[Fuc(a1-6)]GlcNAc
# Outline: as §1
# [32] = biological target: GlcNAc(b1-3)Gal(b1-4)GlcNAc(b1-3)Gal(b1-4)GlcNAc(b1-2)[GlcNAc(b1-3)Gal(b1-4)GlcNAc(b1-3)Gal(b1-4)GlcNAc(b1-6)]Man(a1-6)[GlcNAc(b1-3)Gal(b1-4)GlcNAc(b1-3)Gal(b1-4)GlcNAc(b1-2)Man(a1-3)]Man(b1-4)GlcNAc(b1-4)[Fuc(a1-6)]GlcNAc
# Outline: as §1
# [33] = biological target: GlcNAc(b1-3)Gal(b1-4)GlcNAc(b1-3)Gal(b1-4)GlcNAc(b1-3)Gal(b1-4)GlcNAc(b1-2)Man(a1-3)[GlcNAc(b1-3)Gal(b1-4)GlcNAc(b1-3)Gal(b1-4)GlcNAc(b1-3)Gal(b1-4)GlcNAc(b1-2)Man(a1-6)]Man(b1-4)GlcNAc(b1-4)GlcNAc
# Outline: as §1
# [34] = biological target: GlcNAc(b1-3)Gal(b1-4)GlcNAc(b1-3)Gal(b1-4)GlcNAc(b1-3)Gal(b1-4)GlcNAc(b1-2)Man(a1-3)[GlcNAc(b1-3)Gal(b1-4)GlcNAc(b1-3)Gal(b1-4)GlcNAc(b1-3)Gal(b1-4)GlcNAc(b1-2)Man(a1-6)]Man(b1-4)GlcNAc(b1-4)[Fuc(a1-6)]GlcNAc
# Outline: as §1
# [35] = biological target: GlcNAc(b1-3)Gal(b1-4)GlcNAc(b1-3)Gal(b1-4)GlcNAc(b1-3)Gal(b1-4)GlcNAc(b1-2)[GlcNAc(b1-3)Gal(b1-4)GlcNAc(b1-3)Gal(b1-4)GlcNAc(b1-3)Gal(b1-4)GlcNAc(b1-6)]Man(a1-6)[GlcNAc(b1-3)Gal(b1-4)GlcNAc(b1-3)Gal(b1-4)GlcNAc(b1-3)Gal(b1-4)GlcNAc(b1-2)Man(a1-3)]Man(b1-4)GlcNAc(b1-4)[Fuc(a1-6)]GlcNAc
# Outline: as §1
# [36] = biological target: GlcNAc(b1-3)Gal(b1-4)GlcNAc(b1-3)Gal(b1-4)GlcNAc(b1-3)Gal(b1-4)GlcNAc(b1-3)Gal(b1-4)GlcNAc(b1-2)Man(a1-3)[GlcNAc(b1-3)Gal(b1-4)GlcNAc(b1-3)Gal(b1-4)GlcNAc(b1-3)Gal(b1-4)GlcNAc(b1-3)Gal(b1-4)GlcNAc(b1-2)Man(a1-6)]Man(b1-4)GlcNAc(b1-4)GlcNAc
# Outline: as §1
# [37] = biological target: GlcNAc(b1-3)Gal(b1-4)GlcNAc(b1-3)Gal(b1-4)GlcNAc(b1-3)Gal(b1-4)GlcNAc(b1-3)Gal(b1-4)GlcNAc(b1-2)Man(a1-3)[GlcNAc(b1-3)Gal(b1-4)GlcNAc(b1-3)Gal(b1-4)GlcNAc(b1-3)Gal(b1-4)GlcNAc(b1-3)Gal(b1-4)GlcNAc(b1-2)Man(a1-6)]Man(b1-4)GlcNAc(b1-4)[Fuc(a1-6)]GlcNAc
# Outline: as §1
binder,measurement,setting,value
B1,glycan array binding signal (z-score),Glc(b1-4)Glc,-0.076
same,glycan array binding signal (z-score),Glc(b1-6)Glc,-0.495
same,glycan array binding signal (z-score),GlcA(b1-3)Gal,0.024
same,glycan array binding signal (z-score),GlcA(b1-3)GlcNAc,0.043
same,glycan array binding signal (z-score),GlcA(b1-6)Gal,-0.217
same,glycan array binding signal (z-score),[1],0.082
same,glycan array binding signal (z-score),[2],-0.288
same,glycan array binding signal (z-score),[3],-0.222
same,glycan array binding signal (z-score),[4],-0.636
same,glycan array binding signal (z-score),[5],-0.749
same,glycan array binding signal (z-score),[6],-0.335
same,glycan array binding signal (z-score),[7],-0.813
same,glycan array binding signal (z-score),[8],0.353
same,glycan array binding signal (z-score),[9],-0.547
same,glycan array binding signal (z-score),[10],0.139
same,glycan array binding signal (z-score),[11],0.694
same,glycan array binding signal (z-score),[12],-0.494
same,glycan array binding signal (z-score),[13],-0.115
same,glycan array binding signal (z-score),[14],0.047
same,glycan array binding signal (z-score),[15],0.061
same,glycan array binding signal (z-score),[16],0.115
same,glycan array binding signal (z-score),[17],-0.373
same,glycan array binding signal (z-score),[18],-0.125
same,glycan array binding signal (z-score),[19],-0.348
same,glycan array binding signal (z-score),[20],0.042
same,glycan array binding signal (z-score),[21],0.006
same,glycan array binding signal (z-score),[22],1.09
same,glycan array binding signal (z-score),[23],0.01
same,glycan array binding signal (z-score),GlcNAc(b1-3)Fuc,0.573
same,glycan array binding signal (z-score),GlcNAc(b1-3)Gal,0.055
same,glycan array binding signal (z-score),[24],0.205
same,glycan array binding signal (z-score),GlcNAc(b1-3)Gal(b1-4)Glc,-0.576
same,glycan array binding signal (z-score),[25],-0.568
same,glycan array binding signal (z-score),[26],-0.04
same,glycan array binding signal (z-score),[27],0.456
same,glycan array binding signal (z-score),[28],0.202
same,glycan array binding signal (z-score),[29],-0.215
same,glycan array binding signal (z-score),[30],0.689
same,glycan array binding signal (z-score),[31],0.981
same,glycan array binding signal (z-score),[32],1.94
same,glycan array binding signal (z-score),[33],0.953
same,glycan array binding signal (z-score),[34],1.47
same,glycan array binding signal (z-score),[35],0.666
same,glycan array binding signal (z-score),[36],1.02
same,glycan array binding signal (z-score),[37],0.113
